27 molecules from the antibiotic and cytotoxicity screens of Wong et al. (2023) can be followed below.

One test concerns HSkMC. Put plainly: cytotoxicity call (relative viability < 0.9). The note with it: 10 µM.
A further test deals with S. aureus RN4220. Put plainly: growth inhibition call (relative growth <= 0.2). The note with it: 50 µM.

Some of the results follow.

`C[C@H](CO)N1C[C@H](C)[C@H](CN(C)Cc2ccc3c(c2)OCO3)Oc2ccc(NC(=O)Nc3cccc4ccccc34)cc2CC1=O`: the cytotoxicity call in the test with HSkMC is “inactive”. Further, the growth inhibition call in the test with S. aureus RN4220 was “inactive”.
As for `C[C@H](CO)N1C[C@H](C)[C@H](CN(C)CC2CC2)Oc2ccc(NS(=O)(=O)c3ccc(F)cc3)cc2C1=O`, the cytotoxicity call in the test on HSkMC is “inactive”. Also, in the test with S. aureus RN4220, the growth inhibition call is “inactive”.
`C[C@@H]1CCCCO[C@@H](CN(C)Cc2ccc3c(c2)OCO3)[C@@H](C)CN([C@@H](C)CO)C(=O)c2cc(NC(=O)Nc3ccc(F)cc3)ccc2O1`: the cytotoxicity call in the test with HSkMC was “inactive”. In addition, the growth inhibition call in the test with S. aureus RN4220 was “inactive”.
For `O=C(C[C@@H]1CC[C@H](NC(=O)CN2CCOCC2)[C@@H](CO)O1)NC1CCC1`, the cytotoxicity call in the test with HSkMC was “inactive”. For the same molecule, in the test with S. aureus RN4220, the growth inhibition call was “inactive”.
Take `CCCN(C)C[C@H]1OCCCC[C@H](C)Oc2ccc(NS(C)(=O)=O)cc2C(=O)N([C@H](C)CO)C[C@H]1C`: the cytotoxicity call with HSkMC is “inactive”. In addition, the growth inhibition call with S. aureus RN4220 was “inactive”.
In the case of `C[C@@H]1CN([C@H](C)CO)C(=O)c2cc(C#CCN(C)C)cnc2O[C@@H]1CN(C)C(=O)Nc1cccc(F)c1`, in the test with HSkMC, the cytotoxicity call was “inactive”. Moreover, the growth inhibition call in the test on S. aureus RN4220 is “inactive”.
On to `O=C(CO)c1ccccc1`, for which the cytotoxicity call in the test on HSkMC is “inactive”. In addition, the growth inhibition call in the test on S. aureus RN4220 was “inactive”.
Take `S=C1NCNCN1`: in the test with HSkMC, the cytotoxicity call is “inactive”. The growth inhibition call in the test on S. aureus RN4220 was “inactive”.
With `C[C@H]1CN([C@@H](C)CO)C(=O)c2cccc(NC(=O)Nc3ccccc3)c2O[C@@H]1CN(C)C(=O)Nc1cccc2ccccc12`, in the test on HSkMC, the cytotoxicity call is “inactive”. In the test on S. aureus RN4220, the growth inhibition call is “inactive”.
In the case of `O=C(C[C@@H]1C[C@@H]2c3cc(NC(=O)c4ccc5c(c4)OCO5)ccc3O[C@@H]2[C@H](CO)O1)NCc1ccccn1`, the cytotoxicity call in the test on HSkMC was “inactive”. Further, the growth inhibition call with S. aureus RN4220 was “inactive”.
For the molecule `C[C@H]1CN([C@@H](C)CO)C(=O)c2cc(NC(=O)CCN3CCOCC3)ccc2O[C@H]1CN(C)Cc1ccc(C(=O)O)cc1`, the cytotoxicity call in the test on HSkMC was “inactive”. In the test on S. aureus RN4220, the growth inhibition call was “inactive”.
With `C[C@@H]1CN([C@H](C)CO)C(=O)c2cc(-c3cncnc3)cnc2O[C@H]1CN(C)C(=O)Nc1ccc2c(c1)OCO2`, in the test with HSkMC, the cytotoxicity call is “inactive”. Besides, in the test with S. aureus RN4220, the growth inhibition call is “inactive”.
With `COCC(=O)N(C)C[C@@H]1Oc2cc(-c3ccc(C#N)cc3)ccc2S(=O)(=O)N([C@H](C)CO)C[C@H]1C`, the cytotoxicity call in the test on HSkMC is “inactive”. The growth inhibition call in the test with S. aureus RN4220 is “inactive”.
Regarding `CCCSc1nc(N[C@@H]2C[C@H]2c2ccc(F)c(F)c2)c2nnn([C@@H]3C[C@H](OCCO)[C@@H](O)[C@H]3O)c2n1`, the cytotoxicity call in the test with HSkMC was “inactive”. Moreover, the growth inhibition call in the test with S. aureus RN4220 was “active”.
As to `C[C@@H]1CN([C@H](C)CO)C(=O)c2cc(NC(=O)c3ccccc3)ccc2O[C@@H](C)CCCCO[C@H]1CN(C)C(=O)CCC(F)(F)F`, in the test with HSkMC, the cytotoxicity call is “inactive”. Further, the growth inhibition call in the test with S. aureus RN4220 is “inactive”.
As for `C[C@H]1CN([C@@H](C)CO)C(=O)Cc2cc(NC(=O)Nc3ccc4c(c3)OCO4)ccc2O[C@@H]1CN(C)Cc1ccc(C(=O)Nc2ccccc2N)cc1`, the cytotoxicity call in the test with HSkMC is “inactive”. Besides, the growth inhibition call in the test on S. aureus RN4220 was “inactive”.
Consider `Cc1ccc(S(=O)(=O)Nc2ccc3c(c2)C(=O)N([C@@H](C)CO)C[C@@H](C)[C@H](CN(C)S(=O)(=O)c2ccc(F)cc2)O3)cc1`, for which the cytotoxicity call in the test with HSkMC was “inactive”. Moreover, in the test on S. aureus RN4220, the growth inhibition call is “inactive”.
As to `C[C@@H]1CN([C@H](C)CO)C(=O)c2cc(NC(=O)C3CCCCC3)ccc2O[C@@H](C)CCCCO[C@H]1CN(C)S(=O)(=O)c1ccc(Cl)cc1`, in the test on HSkMC, the cytotoxicity call is “inactive”. Besides, the growth inhibition call in the test with S. aureus RN4220 is “inactive”.
Turning to `C[C@H](CO)N1C[C@H](C)[C@@H](CN(C)Cc2ccc(C(=O)O)cc2)Oc2ccc(NC(=O)Cn3cnnn3)cc2CC1=O`, the cytotoxicity call with HSkMC was “inactive”. In the test on S. aureus RN4220, the growth inhibition call is “inactive”.
With `C[C@H]1CN([C@@H](C)CO)C(=O)Cc2cc(NS(=O)(=O)c3cccs3)ccc2O[C@H]1CN(C)Cc1ccncc1`, the cytotoxicity call in the test with HSkMC is “inactive”. For the same molecule, in the test on S. aureus RN4220, the growth inhibition call was “inactive”.
As to `C[C@@H]1CN([C@@H](C)CO)C(=O)Cc2cc(NC(=O)CCN3CCOCC3)ccc2O[C@H]1CN(C)S(=O)(=O)c1cn(C)cn1`, in the test with HSkMC, the cytotoxicity call is “inactive”. Also, the growth inhibition call with S. aureus RN4220 was “inactive”.
`CCC(=O)Nc1ccc2ccccc2c1`: the cytotoxicity call in the test with HSkMC was “inactive”. The growth inhibition call in the test with S. aureus RN4220 is “inactive”.
Take `COc1ccccc1[C@@H](NC(=O)C1CCN(Cc2ccc(Oc3ccccc3)cc2)CC1)c1ccccn1`: the cytotoxicity call in the test on HSkMC is “inactive”. Also, the growth inhibition call in the test with S. aureus RN4220 is “inactive”.
For the molecule `CN1CCN(C(=O)C[C@@H]2CC[C@H]3[C@@H](COc4ccc(NC(=O)C5CCOCC5)cc4C(=O)N3C)O2)CC1`, the cytotoxicity call in the test on HSkMC (human skeletal muscle cells) is “inactive”. Further, the growth inhibition call in the test with S. aureus RN4220 was “inactive”.
As for `C[C@H](CO)N1C[C@H](C)[C@@H](CN(C)Cc2ccc(C(F)(F)F)cc2)Oc2c(NS(=O)(=O)c3ccc(Cl)cc3)cccc2C1=O`, the cytotoxicity call in the test with HSkMC is “inactive”. Also, the growth inhibition call in the test with S. aureus RN4220 is “inactive”.
Take `C[C@@H]1CCCCO[C@@H](CN(C)Cc2ccc(Cl)c(Cl)c2)[C@H](C)CN([C@H](C)CO)C(=O)c2cc(NC(=O)CCC(F)(F)F)ccc2O1`: the cytotoxicity call with HSkMC was “inactive”. The growth inhibition call with S. aureus RN4220 is “inactive”.
For `C[C@H]1[C@@H](O)[C@@H](C)\C=C/C=C\C=C/C=C\C=C/C=C\C=C/[C@@H](O[C@H]2O[C@H](C)[C@@H](O)[C@H](N)[C@@H]2O)C[C@H]2O[C@](O)(C[C@@H](O)C[C@@H](O)[C@@H](O)CC[C@@H](O)C[C@@H](O)CC(=O)O[C@H]1C)C[C@@H](O)[C@@H]2C(=O)O`, the cytotoxicity call in the test with HSkMC is “inactive”. For the same molecule, the growth inhibition call with S. aureus RN4220 was “inactive”.
